We go through 153 variants from a collection of fitness landscapes (doi:10.1126/science.1257360).

Some of the results follow.

First the molecules themselves.
B1: PhoQ; a variant is named by its letters at X, in order, P23837 (parent)
chain: MKKLLRLFFPLSLRVRFLLATAAVVLVLSLAYGMVALIGYSVSFDKTTFRLLRGESNLFYTLAKWENNKLHVELPENIDKQSPTMTLIYDENGQLLWAQRDVPWLMKMIQPDWLKSNGFHEIEADVNDTSLLLSGDHSIQQQLQEVREDDDDAEMTHSVAVNVYPATSRMPKLTIVVVDTIPVELKSSYMVWSWFIYVLSANLLLVIPLLWVAAWWSLRPIEALAKEVRELEEHNRELLNPATTRELTSLVRNLNRLLKSERERYDKYRTTLTDLTHSLKTPLXXLQXXLRSLRSEKMSVSDAEPVMLEQISRISQQIGYYLHRASMRGGTLLSRELHPVAPLLDNLTSALNKVYQRKGVNISLDISPEISFVGEQNDFVEVMGNVLDNACKYCLEFVEISARQTDEHLYIVVEDDGPGIPLSKREVIFDRGQRVDTLRPGQGVGLAVAREITEQYEGKIVAGESMLGGARMEVIFGRQHSAPKDE

In the test the parent is B1. The test can be described thus: enrichment ratio after two sorts for PhoP signalling (ratio (wild type AVST 3.29)); higher = more functional. Conditions: with PhoP (E. coli).
For the variant YRDE, the enrichment ratio is at most 0.25. As for QLYR, the figure is 0.63; as for TWSD, at most 0.25. Consider EDDI, for which the enrichment ratio was at most 0.25. As for RQDQ, the figure is at most 0.25. As to NICH, the enrichment ratio is at most 0.25. For VQFG the value was at most 0.25.

Consider DCNT, for which the enrichment ratio was at most 0.25. Consider SKTI, for which the enrichment ratio is 14.2. As for PYFV, the figure is at most 0.25; as for VPNA, at most 0.25. Turning to DMDH, the enrichment ratio is at most 0.25. For TPRP the value was at most 0.25; for ANPM, at most 0.25; for TGMW, at most 0.25.

As to YSKC, the enrichment ratio is at most 0.25.

YMIV: the enrichment ratio was at most 0.25. For the variant GWYQ, the enrichment ratio was at most 0.25. As for NQRY, the figure is at most 0.25; as for FMIF, at most 0.25; as for KHGA, at most 0.25. For KILW the value was at most 0.25; for EKQR, at most 0.25. NVVS: the enrichment ratio is at most 0.25.

QHVG: the enrichment ratio is at most 0.25. As for DEHE, the figure is at most 0.25; as for AKRI, at most 0.25; as for KYSI, at most 0.25. For NFLL the value was at most 0.25. For QWSM the value was at most 0.25.

Consider NDSL, for which the enrichment ratio was at most 0.25.

As for PGPH, the enrichment ratio is at most 0.25. As for ALGT, the figure is at most 0.25; as for DWHP, at most 0.25. For TQSC the value was 15.3; for LCSE, at most 0.25; for YQKV, at most 0.25. As to QYYY, the enrichment ratio is at most 0.25. In the case of HKEH, the enrichment ratio was at most 0.25. As for RTQK, the figure is at most 0.25; as for PYWG, at most 0.25.

Turning to TWGE, the enrichment ratio was at most 0.25. For ERWT the value was at most 0.25.

On to FWVK, for which the enrichment ratio was at most 0.25. As for DVDE, the figure is at most 0.25. As to KAYV, the enrichment ratio is at most 0.25. Take IATF: the enrichment ratio was at most 0.25. Turning to RWSP, the enrichment ratio was at most 0.25. As for WMHC, the figure is at most 0.25.

Consider CCTT, for which the enrichment ratio is at most 0.25. Consider NHFP, for which the enrichment ratio is at most 0.25. For FWNS the value was at most 0.25. As to NLWI, the enrichment ratio is at most 0.25. In the case of NHHF, the enrichment ratio was at most 0.25. As for SYDD, the enrichment ratio is at most 0.25. For SLLQ the value was 7.5; for CHAM, at most 0.25; for DAAH, at most 0.25.

On to IAKA, for which the enrichment ratio was at most 0.25. Take VGSF: the enrichment ratio was at most 0.25. On to FRND, for which the enrichment ratio is at most 0.25. Take DGMF: the enrichment ratio was at most 0.25. Regarding VRRM, the enrichment ratio is at most 0.25. For the variant WYHV, the enrichment ratio was at most 0.25. As for LFGV, the figure is at most 0.25; as for AYAK, at most 0.25; as for IIWT, at most 0.25.

On to SVVN, for which the enrichment ratio was found to be 5.76. As for QHAV, the figure is at most 0.25. For VEIK the value was at most 0.25; for IVFL, at most 0.25. With PHHM, the enrichment ratio is at most 0.25. As for THTP, the figure is at most 0.25. Consider ENCS, for which the enrichment ratio was at most 0.25. As for ATQG, the enrichment ratio is at most 0.25. For RSWM the value was at most 0.25. For FTEF, the enrichment ratio was at most 0.25.

On to MDYC, for which the enrichment ratio was at most 0.25.

In the case of TSHD, the enrichment ratio is at most 0.25. For DDQH, the enrichment ratio was at most 0.25.

Turning to WSRH, the enrichment ratio was at most 0.25. As for GGYS, the enrichment ratio was at most 0.25. For GEYY the value was at most 0.25; for WRGT, at most 0.25. As for NTLM, the figure is 2.77. For VVYI the value was at most 0.25; for PWHQ, at most 0.25; for YLFK, at most 0.25. As to QSQA, the enrichment ratio was at most 0.25. For the variant CFWP, the enrichment ratio is at most 0.25. Consider EHAL, for which the enrichment ratio is at most 0.25. As for VANY, the figure is at most 0.25; as for DHIC, at most 0.25; as for NDYE, at most 0.25. As for IAWS, the figure is at most 0.25. For WYYV the value was at most 0.25; for HRQN, at most 0.25; for YNNR, at most 0.25. In the case of EFFF, the enrichment ratio was at most 0.25.

Consider PMNR, for which the enrichment ratio is at most 0.25. As for RKMH, the figure is at most 0.25.

Take FDFI: the enrichment ratio was at most 0.25.

With YQIV, the enrichment ratio is at most 0.25. KNCM: the enrichment ratio is at most 0.25. For WAHC the value was at most 0.25; for FDYY, at most 0.25. For ENWW the value was at most 0.25; for QPMQ, at most 0.25. Turning to ASMD, the enrichment ratio is at most 0.25. For VVPG the value was at most 0.25. On to RCNW, for which the enrichment ratio was at most 0.25. In the case of SFYT, the enrichment ratio was at most 0.25. For PNVF the value was at most 0.25; for IEVA, at most 0.25. For NMGK the value was at most 0.25; for NIHN, at most 0.25. As for AKCK, the figure is 0.311; as for WPCH, at most 0.25; as for YRVF, at most 0.25. Take MVIM: the enrichment ratio is at most 0.25. As for TDCG, the figure is 13.4. For AWTS the value was at most 0.25.

Turning to GRHL, the enrichment ratio was at most 0.25. As for TQRR, the figure is at most 0.25; as for IISP, at most 0.25; as for VHKD, at most 0.25. Take EGCG: the enrichment ratio is at most 0.25. For MWPN the value was at most 0.25.

LYLY: the enrichment ratio was at most 0.25. For IFWF the value was at most 0.25; for IPYR, at most 0.25; for PDIV, at most 0.25.

As for DLRM, the enrichment ratio is at most 0.25. As for DDAM, the figure is at most 0.25.

For VSGK, the enrichment ratio was at most 0.25.

With ERPN, the enrichment ratio is at most 0.25. On to WSWA, for which the enrichment ratio is at most 0.25. As for TGPV, the figure is at most 0.25. For VTNN the value was at most 0.25; for NLFE, at most 0.25. As for TFVN, the figure is at most 0.25; as for YHLT, at most 0.25; as for ACTM, 11.9.

For NFPP, the enrichment ratio was at most 0.25. As for GCAA, the figure is at most 0.25; as for RNVV, at most 0.25; as for HHHS, at most 0.25. As for NRIA, the enrichment ratio is at most 0.25. For HNPD the value was at most 0.25. On to RIER, for which the enrichment ratio is at most 0.25.

For KKRP, the enrichment ratio is at most 0.25.

As to MTCN, the enrichment ratio was at most 0.25. As for VCST, the figure is at most 0.25.
